Data reported in PubChem BioAssay AID504466 (National Center for Advancing Translational Sciences (NCATS), 2011).
Among all 330,000 compounds or so, about 4,200 (1.3%) were called active. Inconclusive results, whose numbers are uncertain, are shown with a selection of clear calls. Calls come from the whole dose curve; as a rule, active = well fitted activation curve with a large enough effect; inconclusive = small, poorly fitted or top-dose-only effect; inactive = no such curve, though single readings can be large or run the other way. Where the call is inconclusive, the potency comes from a doubtful curve fit.

Assay: qHTS screen for small molecules that induce genotoxicity in human embryonic kidney (HEK293T) cells expressing luciferase-tagged ELG1; note: nearly all actives have a fitted effect of over 60% in size; for activity change, positive = activation: % of control where 0% means no effect
Details: HEK293T ELG1-luciferase reporter, luminescence, 16 h; series mostly up to 46 µM; activity change, positive = activation: at the top concentration
Procedure, shortened: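 HEK293T cells expressing luciferase-tagged ELG1 were exposed to compound or DMSO vehicle for 16 hr at 37 °C and 5% CO2. Luciferase activity was then measured with ONE-Glo after 30 min at room temperature.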
Potency is the fitted concentration of half-maximal effect; tags give direction and shape of the fitted curve.

Row | Structure (SMILES) | Potency | activity change, positive = activation
1 | Cc1ccsc1/C=N/Nc1ncc(Cl)cc1Cl | inconclusive: 2.31 µM [activator, partial curve] | 
2 | O=C(CSc1nc(-c2ccc(F)cc2)cc(C(F)(F)F)n1)NCc1ccco1 |  | inactive: 5.61%
3 | O=C1NC(=Nc2ccccc2)S/C1=C/c1cccs1 | inconclusive: 10.3 µM [activator, partial curve] | 
4 | O=C(COC(=O)c1ccccc1-n1cnnn1)c1ccc(Br)cc1 | active: 18.3 µM | 
5 | CCOc1ccc(CC(=O)NNC(=S)NC)cc1Br |  | inactive: 3.49%
6 | COc1ccc(C(=O)/C=C/Nc2cc(C)on2)c(OC)c1 | inconclusive: 23.1 µM [activator, partial curve, poor fit] | 
7 | O=C(CN1C(=O)C2C3C=CC(C3)C2C1=O)NCCC1=CCCCC1 (stereo not given) | inconclusive: 25.9 µM [activator, partial curve, poor fit] | 
8 | COc1cc2c(cc1OC)CN(C(=O)C1CCCN(C(=O)c3ccc(Cl)cc3)C1)CC2 (stereo not given) |  | inactive: -1.61%
9 | O=C(Nc1ccc2c(c1)OCO2)NC1CCN(Cc2ccccc2)CC1 | inconclusive: 18.4 µM [activator, partial curve, poor fit] | 
10 | COc1cc(C(=O)N/N=C(\C)c2ccc(NC(=O)Cc3ccccc3)cc2)ccc1O | inconclusive: 18.3 µM [activator, single point] | 
11 | O=Cc1ccccc1OCc1ccc2c(c1)OCO2 | active: 13 µM | 
12 | O=C(c1ccco1)N1CCN(C(c2ccccn2)c2nnnn2C2CCCC2)CC1 (stereo not given) | inconclusive: 16.4 µM [activator, partial curve] | 
13 | O=C(CSc1nnc(-c2ccccc2)c(-c2ccccc2)n1)NC1CCS(=O)(=O)C1 (stereo not given) |  | inactive: -5.36%
14 | c1ccc2nc(-c3ccncc3)ccc2c1 | inconclusive: 25.9 µM [activator, partial curve, poor fit] | 
15 | COc1ccc(/C(N)=N/OC(=O)Cc2ccccc2)cc1 | inconclusive: 18.4 µM [activator, partial curve, poor fit] | 
16 | O=C(NC(=S)N1CCc2ccccc21)c1ccccc1Cl | inconclusive: 16.4 µM [activator, partial curve, poor fit] | 
17 | Clc1ccc(Cc2nnc(-c3cccs3)o2)cc1 | inconclusive: 18.4 µM [activator, partial curve, poor fit] | 
18 | O=C(Nc1nncs1)c1cc2c(s1)CCC2 | inconclusive: 11.6 µM [activator, partial curve] | 
19 | O=[N+]([O-])c1ccc(N/N=C/c2cccc(O)c2O)cc1 | active: 11.6 µM | 
20 | O=C(NCCc1ccccc1)C1CCC(CNS(=O)(=O)c2ccc(F)cc2)CC1 (stereo not given) | inconclusive: 25.9 µM [activator, partial curve, poor fit] | 
21 | COc1ccc(NC(=O)CCSc2ccc(F)cc2)cc1 | inconclusive: 23.1 µM [activator, partial curve] | 
22 | COc1ccc(C2CC(=O)c3ccccc3O2)cc1 (stereo not given) | inconclusive: 20.6 µM [activator, single point] | 
23 | Cc1ccc(-c2cc(C(F)F)nc(S(C)(=O)=O)n2)cc1 | inconclusive: 31.6 µM [activator, single point] | 

Row | Structure (SMILES) | Potency | activity change, positive = activation
24 | CCNc1nc(=S)nc(NCc2ccccc2)[nH]1 |  | inactive: 2.6%
25 | O=C(c1cc([N+](=O)[O-])ccc1N1CCOCC1)N1CCN(c2ccccc2)CC1 | inconclusive: 5.17 µM [activator, full curve] | 
26 | Cc1nc(SCC(=O)N(C)C2CCS(=O)(=O)C2)c2ccccc2n1 (stereo not given) |  | inactive: -4.35%
27 | COc1ccc(C(=O)Nc2nnc(C(F)(F)F)s2)cc1 | inconclusive: 2 µM [activator, full curve, poor fit] | 
28 | O=C(O)c1ccc(NC(=O)c2cc3ccccc3o2)cc1 | inconclusive: 20.6 µM [activator, partial curve, poor fit] | 
29 | O=C(CSc1nc2ccccc2c(=O)n1CC1CCCO1)Nc1ccc(F)cc1 (stereo not given) |  | inactive: -8.1%
30 | Cc1ccc(N2CCN(c3ccc(C)cc3)C2c2ccccn2)cc1 | inconclusive: 25.1 µM [activator, single point] | 
31 | O=C(NC(=S)NCCN1CCOCC1)c1ccc(F)cc1 |  | inactive: -1.04%
32 | Cc1ccc(C2/C(=C(/O)c3cnn(-c4ccccc4)c3C)C(=O)C(=O)N2CCN2CCOCC2)o1 (stereo not given) | active: 5.8 µM | 
33 | O=C(CN(Cc1cccs1)C(=O)CSc1nnc(COc2ccccc2)o1)NC1CCCCC1 |  | inactive: -7.92%
34 | Cc1cccc(C(=O)Nc2sc(-c3ccccc3)cc2C(=O)O)c1 | inconclusive: 16.4 µM [activator, partial curve] | 
35 | O=C(Cc1ccc(F)cc1)Nc1nnc(SCC(=O)NC2CCCC2)s1 | inconclusive: 29.1 µM [activator, single point] | 
36 | COC(=O)c1ccc(N2OC3(C)C=CC2CC3)cc1 (stereo not given) | inconclusive: 32.6 µM [activator, partial curve, poor fit] | 
37 | CCOC(=O)c1csc(-c2ccc3c(c2)CCO3)n1 | inconclusive: 5.8 µM [activator, partial curve] | 
38 | COc1ccc(OC)c(C(=O)c2ccc(C(=O)Nc3ccc4ccccc4c3)cc2)c1 | inconclusive: 8.2 µM [activator, partial curve, poor fit] | 
39 | CCN1CCN(CCNC(=O)C2CCN(Cc3nc(-c4ccc(Cl)cc4)oc3C)CC2)CC1 | inconclusive: 29.1 µM [activator, single point] | 
40 | O=C(CSc1nnc(-c2ccc(O)cc2)o1)Nc1ccccc1Br | active: 10.3 µM | 
41 | CCOC(=O)N1CCN(C(=O)c2cccc(OC)c2O)CC1 |  | inactive: -1.24%
42 | COC(=O)c1cc(C#N)c(NCc2ccccc2)nc1C | inconclusive: 23.1 µM [activator, partial curve, poor fit] | 
43 | COc1ccc2oc(-c3ccccc3[N+](=O)[O-])cc(=O)c2c1 | inconclusive: 23.1 µM [activator, single point] | 
44 | Cc1ccc2cccc(N=Cc3c(C)[nH]n(-c4ccccc4)c3=O)c2n1 | inconclusive: 32.6 µM [activator, partial curve, poor fit] | 
45 | COc1ccc(OCc2cc(C(=O)N(C)C(C)c3ccon3)no2)c(Cl)c1 (stereo not given) | inconclusive: 16.4 µM [activator, partial curve] | 
